Laboratory results reported in a collection of fitness landscapes (doi:10.1016/j.celrep.2020.107928).
Whole data set: some 81,000 sequences, median “one-hybrid fitness for binding NBS DNA” near -0.1, cut for the highest 2% near 0.36. The list shows a part of the results.

B1: Caulobacter ParB omega fusion; a variant is named by its letters at X, in order, B8GW30 (parent)
chain: MESVVVGEPGMSEGRRGLGRGLSALLGEVDAAPAQAPGEQLGGSREAPIEILQRNPDQPRRTFREEDLEDLSNSIREKGVLQPILVRPSPDTAGEYQIVAGERAWRAAQRAGLKTVPIMVRELDDLAVLEIGIIENVQRADLNVLEEALSYKVLMEKFERTQENIAQTIGKSXSHVANXMRLLXLPDEVQSYLVSGELTAXHARAIAAAADPVALAKQIIEGGLSVRETEALARKAPNLSAGKSKGGRPPRVKDTDTQALESDLSSVLGLDVSIDHRGSTGTLTITYATLEQLDDLCNRLTRGI

Variants of: B1
Test: one-hybrid fitness for binding NBS DNA (the Noc-binding site; scaled: cognate 1, non-cognate 0); higher = stronger binding
Conditions: with NBS DNA site
In short: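 Values were rescaled so that cognate is 1 and non-cognate is 0. Each is a fitness, the log change in a variant's read ratio to wild type from Illumina reads of plasmids before and after selection, with three replicate libraries pooled and variants under 10 reads dropped. Selection of the Caulobacter ParB libraries, four specificity codons randomised, used E. coli USO with a HIS3 reporter, site 19 bp from the promoter, on M9-minus-histidine with 0.1 mM IPTG and 5 mM 3-AT for 48 hours at 37°C.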

Row | Variant | one-hybrid fitness for binding NBS DNA
1 | PYNY | ≤ 0.2
2 | QGKV | ≤ 0.2
3 | QQFG | ≤ 0.2
4 | FKTL | ≤ 0.2
5 | MDTT | ≤ 0.2
6 | PAWT | ≤ 0.2
7 | EYWG | ≤ 0.2
8 | YARS | ≤ 0.2
9 | RRIS | 0.661
10 | PYSY | ≤ 0.2
11 | KPMC | ≤ 0.2
12 | CCTC | ≤ 0.2
13 | QPQN | ≤ 0.2
14 | YPSV | ≤ 0.2
15 | TINF | ≤ 0.2
16 | LHYF | ≤ 0.2
17 | EYES | ≤ 0.2
18 | NMTD | ≤ 0.2
19 | LLSV | ≤ 0.2
20 | RKLG | ≤ 0.2
21 | SVPG | ≤ 0.2
22 | MMYG | ≤ 0.2
23 | RGQI | ≤ 0.2
24 | RHMN | ≤ 0.2
25 | TTWH | ≤ 0.2

Row | Variant | one-hybrid fitness for binding NBS DNA
26 | DKTE | ≤ 0.2
27 | CSKF | ≤ 0.2
28 | CNDW | ≤ 0.2
29 | KLQR | ≤ 0.2
30 | MQMR | ≤ 0.2
31 | EIAS | ≤ 0.2
32 | WKPV | ≤ 0.2
33 | NNAG | ≤ 0.2
34 | TTTM | ≤ 0.2
35 | DCAC | ≤ 0.2
36 | CNDT | ≤ 0.2
37 | WYYR | ≤ 0.2
38 | PWLE | ≤ 0.2
39 | QCCT | 0.521
40 | SAVC | ≤ 0.2
41 | RIFS | 0.214
42 | AMDN | ≤ 0.2
43 | ITTY | ≤ 0.2
44 | MHAR | ≤ 0.2
45 | TCWT | ≤ 0.2
46 | QDPP | ≤ 0.2
47 | NEAT | ≤ 0.2
48 | RWND | ≤ 0.2
49 | CHLH | ≤ 0.2
50 | VLGP | ≤ 0.2

Row | Variant | one-hybrid fitness for binding NBS DNA
51 | VKQT | ≤ 0.2
52 | YSGS | ≤ 0.2
53 | LLAF | ≤ 0.2
54 | ACDV | ≤ 0.2
55 | RGKG | ≤ 0.2
56 | SGMN | ≤ 0.2
57 | NDGR | ≤ 0.2
58 | IVNM | ≤ 0.2
59 | KMDG | ≤ 0.2
60 | MRFL | ≤ 0.2
61 | LGMR | ≤ 0.2
62 | PGNG | ≤ 0.2
63 | MAKG | ≤ 0.2
64 | ETER | ≤ 0.2
65 | TTYT | ≤ 0.2
66 | PTFL | ≤ 0.2
67 | QAYC | ≤ 0.2
68 | EAPF | 0.532
69 | MWLT | ≤ 0.2
70 | FHAP | ≤ 0.2
71 | TKNL | ≤ 0.2
72 | SVRF | ≤ 0.2
73 | QRQF | 0.323
74 | FMLL | ≤ 0.2
75 | LGLA | ≤ 0.2

Row | Variant | one-hybrid fitness for binding NBS DNA
76 | QQKV | 0.533
77 | AILN | ≤ 0.2
78 | TTSE | ≤ 0.2
79 | KQDV | ≤ 0.2
80 | VHAS | ≤ 0.2
81 | SFGI | ≤ 0.2
82 | IHAG | ≤ 0.2
83 | RPCC | ≤ 0.2
84 | SMMS | ≤ 0.2
85 | MNVA | ≤ 0.2
86 | AVSF | ≤ 0.2
87 | VLGC | ≤ 0.2
88 | PMWS | ≤ 0.2
89 | IAPS | ≤ 0.2
90 | FPAG | ≤ 0.2
91 | SCKN | ≤ 0.2
92 | HKPC | ≤ 0.2
93 | ANSK | ≤ 0.2
94 | GCAC | ≤ 0.2
95 | TAIH | ≤ 0.2
96 | RIQP | ≤ 0.2
97 | CNQL | ≤ 0.2
98 | GKLT | ≤ 0.2
